# Laboratory results: publication PMC4336329 (PLoS ONE, 2015)
# Hit rate of the full screen: of about 310,000 compounds, about 14,000 (4.5%) showed an effect of 50% or more. The effect is printed as a negative number. The list shows a part of the results.
# Target: human ether-à-go-go-related gene (hERG) potassium channel (human, UniProt Q12809)
# Assay: primary screen, population patch clamp on CHO cells stably expressing hERG
# 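Note: peak tail current of the secondary pulse compared with the same well before compound.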
# human ether-à-go-go-related gene (hERG) potassium channel, sequence (Q12809 whole entry, looked up): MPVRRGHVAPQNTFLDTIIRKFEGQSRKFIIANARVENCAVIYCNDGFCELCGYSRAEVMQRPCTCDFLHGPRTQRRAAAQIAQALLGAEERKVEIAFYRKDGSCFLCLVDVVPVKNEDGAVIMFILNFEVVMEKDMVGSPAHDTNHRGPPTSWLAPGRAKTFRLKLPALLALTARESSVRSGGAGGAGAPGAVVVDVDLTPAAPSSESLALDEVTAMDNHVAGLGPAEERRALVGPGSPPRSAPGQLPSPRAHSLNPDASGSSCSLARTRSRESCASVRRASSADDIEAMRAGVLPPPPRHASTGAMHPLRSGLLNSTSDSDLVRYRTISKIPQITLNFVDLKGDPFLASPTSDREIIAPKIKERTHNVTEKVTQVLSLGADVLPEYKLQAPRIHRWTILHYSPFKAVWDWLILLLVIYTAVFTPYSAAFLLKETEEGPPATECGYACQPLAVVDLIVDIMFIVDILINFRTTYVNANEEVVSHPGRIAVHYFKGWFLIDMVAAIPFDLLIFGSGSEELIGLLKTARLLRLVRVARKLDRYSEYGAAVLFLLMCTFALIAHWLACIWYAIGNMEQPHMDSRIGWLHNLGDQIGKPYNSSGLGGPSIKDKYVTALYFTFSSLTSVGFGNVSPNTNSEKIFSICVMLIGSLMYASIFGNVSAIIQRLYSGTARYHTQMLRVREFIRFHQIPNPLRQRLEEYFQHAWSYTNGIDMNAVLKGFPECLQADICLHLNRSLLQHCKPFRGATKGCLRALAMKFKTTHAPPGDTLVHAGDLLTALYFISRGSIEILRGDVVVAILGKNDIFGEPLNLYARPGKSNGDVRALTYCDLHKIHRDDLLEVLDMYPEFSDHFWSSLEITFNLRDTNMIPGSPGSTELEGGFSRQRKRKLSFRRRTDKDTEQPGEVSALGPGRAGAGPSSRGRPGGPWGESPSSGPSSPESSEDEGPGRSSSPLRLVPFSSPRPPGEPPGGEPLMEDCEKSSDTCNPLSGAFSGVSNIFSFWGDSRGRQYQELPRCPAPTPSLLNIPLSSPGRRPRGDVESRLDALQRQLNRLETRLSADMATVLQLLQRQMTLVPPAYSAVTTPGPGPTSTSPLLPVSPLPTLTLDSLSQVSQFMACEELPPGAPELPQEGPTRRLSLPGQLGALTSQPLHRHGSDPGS
row,SMILES,"hERG current change (%, negative = inhibition) at 10uM"
1,CC1CCCCN1CCNC(=O)C1CCN(S(=O)(=O)c2cccc3cccnc23)CC1 (stereo not drawn),-6.04%
2,C=CCn1c(SCc2c(C(=O)OC)sc(N)c2C(=O)OC)nnc1-c1ccc(Br)cc1,-65.4%
3,CCOC(=O)N1CCC(NC(=O)C2CCN(C(=O)c3cc4sccc4n3CC)CC2)CC1,-5.09%
4,CCC(C)NC(=O)c1cn(CC)c2cc(N3CCN(C)CC3)c(F)cc2c1=O (stereo not drawn),2.37%
5,CC1CCN(C(=S)NC(=O)c2ccco2)CC1,12.3%
6,CC1CCCCC12NC(=O)N(CC(=O)N1CCN(Cc3ccc(C#N)cc3)CC1)C2=O (stereo not drawn),-15.1%
7,COc1ccc(N2CC(C(=O)OCC(=O)c3ccc(C)cc3)CC2=O)cc1 (stereo not drawn),13.9%
8,Oc1ccc(Br)cc1-c1cc(-c2ccccc2F)[nH]n1,-1.3%
9,COCCOC(=O)C1=C(N)Oc2c(c(=O)oc3ccccc23)C1c1ccncc1 (stereo not drawn),-22.9%
10,O=C(C1CC1)N1CCc2cc(S(=O)(=O)NC3CCN(Cc4ccccc4)CC3)ccc21,4.07%
11,COc1ccc(CCNC(=O)CNS(=O)(=O)c2ccc(N(C)C)c([N+](=O)[O-])c2)cc1OC,7.98%
12,O=c1c2[nH]c3cccc(Cl)c3c2ncn1CCN1CCCCC1,-21.9%
13,CN(C)c1ccc(C=NCC2COc3ccccc3O2)cc1 (stereo not drawn),24.8%
14,COc1ccc(Br)cc1/C=N/Nc1ccccn1,14.8%
15,CCn1cc(C(=O)O)c(=O)c2cc(F)c(N3CCN(C(=S)NC(=O)c4ccccc4C)CC3)cc21,-6.92%
16,Cc1ccc(NC(=O)C2CCN(S(=O)(=O)c3ccc4c(c3)NC(=O)C(C)S4)CC2)cc1Cl (stereo not drawn),9.89%
17,CCOC(=O)C1=C(C)NC(=O)NC1c1cccc(OC)c1OCc1ccccc1Cl (stereo not drawn),-1.42%
18,CC(C)=CCCC(C)CN1CCC(N2CCC(C(=O)N3CCOCC3)CC2)CC1 (stereo not drawn),-60.4%
19,COc1cc(C2CC(=O)C=C(O)C2)cc(OC)c1OC (stereo not drawn),27.1%
20,CCn1c(=O)c(C(=O)NCCN2CCCCC2)c(O)c2ccccc21.Cl,-25.3%
21,Cc1cc(C(=O)NCC(=O)OCC(=O)N2CCCCCC2)ccc1[N+](=O)[O-],10.1%
22,Cc1ccccc1C(=O)NC1CCN(Cc2nnnn2C(C)(C)C)CC1,17.7%
23,CC(=O)c1ccc(NC(=O)Nc2ccc(Cl)cc2)cc1,13.2%

row,SMILES,"hERG current change (%, negative = inhibition) at 10uM"
1,Nc1ncc(S(=O)(=O)c2ccc(Cl)cc2)c(N)n1,-4.78%
2,COc1cc(N=Cc2c(O)[nH]c3ccccc23)cc(OC)c1OC,2.02%
3,O=C(NCC1CCCO1)/C(=C\c1ccccc1F)NC(=O)c1ccccc1 (stereo not drawn),-8.01%
4,O=C(Nc1ccccc1-c1ccccc1)C(=O)Nc1ccccc1-c1ccccc1,23.6%
5,CCOC(=O)N1CCN(C(=O)COc2ccccc2Cl)CC1,-0.265%
6,O=C1C=CC(O)(c2cc(=O)c3c(O)cc(O)cc3o2)C=C1,12.7%
7,COC(=O)c1ccc(C(=O)NC2CCCN(Cc3ccc(Cl)cc3)C2)nc1 (stereo not drawn),-43.8%
8,COC(=O)c1sccc1NC(=O)c1cc(OC)c(OC)c(OC)c1,3.09%
9,CC1(c2nnc(Cc3ccccc3)o2)CC(c2ccc(Cl)cc2)=NO1 (stereo not drawn),-23.3%
10,COc1cc(/C=N/n2c(COc3ccccc3)n[nH]c2=S)cc(Br)c1O,22%
11,COc1ccc(CC(=O)NNc2ncnc3c2cnn3-c2ccc(C)cc2)cc1OC,10.5%
12,Cc1ccn2c(-c3csc(NCc4ccco4)n3)c(C)nc2c1,-64.9%
13,CC1Cc2ccccc2N1C(=O)COC(=O)c1ccc(S(=O)(=O)N(C)C)cc1 (stereo not drawn),12.4%
14,CCCCNC(=O)Nc1c(C)cc(SC#N)cc1C,21.6%
15,N#C/C(=C\c1cccc(Br)c1)C(=O)N1CCCCC1,-14.1%
16,N=c1oc2ccc(Br)cc2cc1C(=O)NCc1ccccc1,14.5%
17,CCCCCCCNc1cccc(C)c1,19.9%
18,Nc1ccnn1Cc1ccc(Br)s1,11.3%
19,Cc1cc(/C=N/NC(=O)CC2(C)OCCO2)c(C)n1-c1cc(Cl)cc(Cl)c1,-5.75%
20,OC(c1ccc2c(c1)OCO2)c1nccc2ccccc12 (stereo not drawn),-1.04%
21,O=C(Nc1ccc2c(c1)OCO2)c1cccc(F)c1,15.3%
22,Nc1cc(N2CCOCC2)c(Cl)cc1[N+](=O)[O-],8.17%
23,COC(=O)c1ccc(NC(=O)CC2C(=O)N(C)C(=S)N2Cc2ccc(S(N)(=O)=O)cc2)cc1 (stereo not drawn),-13.1%

row,SMILES,"hERG current change (%, negative = inhibition) at 10uM"
1,O=C(CC1CC2CCC1C2)N1CCN(S(=O)(=O)c2ccccc2C(F)(F)F)CC1 (stereo not drawn),-24.9%
2,O=C(O)c1ccccc1-c1cc2ccccc2[nH]1,19.7%
3,Cl.FC(F)Sc1ccc(NC2=NCCCCC2)cc1,-34.9%
4,Cc1cc(SCc2ccccc2F)nc(=O)[nH]1,14.3%
5,Cc1[nH]c2ccccc2c1C(=O)CSc1ncn[nH]1,18.7%
6,CC(C)n1c(-c2ccccc2)nc(=S)c2c1CCCC2,6.54%
7,Cc1cc(NS(=O)(=O)c2ccccc2)c([N+](=O)[O-])cc1C,0.908%
8,NNC(=O)c1sccc1OCc1ccc(F)cc1,2.24%
9,CCN1CCN(CCCNC(=O)c2ccc3c(c2)NC(=O)/C(=C\c2cccc(C)c2)S3)CC1,-38.6%
10,COCCN(CC(=O)NCC1CCCO1)C(=O)CCC(=O)Nc1ccccn1 (stereo not drawn),14.8%
11,CCCC1(c2ccccc2)NC(=O)N(CC(=O)NCc2ccc(C)cc2)C1=O (stereo not drawn),8.24%
12,CCC(C)NC(=O)Cn1cnc2sc(C)c(S(=O)(=O)N3CCN(c4ncccn4)CC3)c2c1=O (stereo not drawn),20.5%
13,O=[N+]([O-])c1ccc(S(=O)(=O)NCCc2cn3ccccc3n2)cc1,-40.6%
14,Cc1cccn2c(/C=N/OCc3ccc(F)cc3)c(-c3ccc(Cl)cc3)nc12,9.75%
15,CCOc1ccc(C2CC(=O)c3c([nH]c(C(=O)OC)c3C)C2)cc1OC (stereo not drawn),4.42%
16,COc1cc(C(CC(=O)Nc2cc(C)ccn2)N2Cc3ccccc3C2=O)cc(OC)c1OC (stereo not drawn),22.3%
17,COc1ccc(NC(=O)CN2C(=O)CSc3ccc(S(=O)(=O)N4CCC(C)CC4)cc32)cc1,22.6%
18,CCOC(=O)C1=C(O)/C(=C/c2cc(OC)c(OC)c(OC)c2)SC1=Nc1ccc(OC)cc1,10.3%
19,Cc1nnc(N2CCC(C(=O)N3CCCCCC3)CC2)c2nn(-c3ccc(Cl)cc3)c(C)c12,-65.2%
20,Cc1ccnc2nc(C(=O)OCC(=O)N(CC(C)C)C3CCS(=O)(=O)C3)nn12 (stereo not drawn),3.36%
21,COCCOC(=O)c1sc2nc[nH]c(=O)c2c1C,20.6%
22,O=C(NCC(c1ccco1)N1CCN(c2ccc(F)cc2)CC1)c1cccs1 (stereo not drawn),-16.1%
23,O=C1CN(S(=O)(=O)c2ccccc2)c2ccccc2N1,11.2%

row,SMILES,"hERG current change (%, negative = inhibition) at 10uM"
1,CCC(C)(C)NC(=O)CN(C(=O)c1csnn1)c1cccc2c1CCCC2,27.7%
2,CC(C)CCNC(=O)C(c1ccco1)N(Cc1ccc(F)cc1)C(=O)c1snc(C(N)=O)c1N (stereo not drawn),-22.4%
3,CCC(C)NC(=O)c1ccc2c(c1)N(Cc1ccccc1)C(=O)CS2 (stereo not drawn),-6.7%
4,CCn1c(C)nnc1SCC(=O)Nc1cccc(Cl)c1,-4.96%
5,O=C(COC(=O)c1cc(Br)ccc1O)Nc1ccc2c(c1)OCCO2,-0.97%
6,O=C1NC(=Nc2cccnc2)S/C1=C/c1ccc(F)cc1,-4.58%
7,Cc1ccc(N(CC(O)CN2CCCC2)S(=O)(=O)c2ccc(C)cc2)cc1.Cl (stereo not drawn),-76.4%
8,CC(C)c1nc2ccc(C(=O)O)cc2[nH]1,12.6%
9,Cc1cc(=O)oc(C)c1C(=O)OCC(=O)c1ccc(Cl)c(Cl)c1,5.44%
10,COc1ccc(N=C2SC(C(=O)O)CC(=O)N2C)cc1 (stereo not drawn),1.4%
11,CSc1ccc(S(=O)(=O)NCC(=O)OCC(=O)N(C)C2CCCCC2)cc1[N+](=O)[O-],-7.22%
12,CCOCCCNC(=O)c1ccc(/C=C2\Oc3ccccc3N(C)C2=O)cc1,26.3%
13,CC(=O)c1c(C)[nH]c(C(=O)NC2CCCCC2)c1C,2.16%
14,Cc1oc(-c2ccccc2Cl)nc1CN(C)C(C)c1ccon1 (stereo not drawn),-5.27%
15,CCOC(=O)c1nnn(-c2nonc2N)c1CN(CC)CC,-7.44%
16,O=C(CN1CCCCCC1)Nc1ccccc1OC(F)F,-6.05%
17,COc1ccc(NC2c3ccccc3C(=O)N2c2ccccn2)cc1 (stereo not drawn),-25.6%
18,Cc1cccc(C(=O)O)c1NC(=O)c1ccc(F)cc1,17.3%
19,O=C(c1scc2c1CCCC2)N1CCOCC1,2.25%
20,Cc1ccc(C(=O)NC(c2ccccc2)C(Cl)Cl)cc1 (stereo not drawn),-16.6%
21,O=C(Cc1ccccc1)NCC(=O)N1CCC2(CC1)NCCc1[nH]cnc12,23.7%
